Measured values published in the BET-seq Pho4 binding data (Le et al. 2018).
Some of the results follow. The energies were worked out here from pooled read counts, against the library average; single values are noisy.

Each sequence was assayed against T1, Pho4 (S. cerevisiae) (UniProt P07270) (assay: relative binding free energy (BET-seq); higher = weaker binding). Settings: reference: library average.
T1 sequence: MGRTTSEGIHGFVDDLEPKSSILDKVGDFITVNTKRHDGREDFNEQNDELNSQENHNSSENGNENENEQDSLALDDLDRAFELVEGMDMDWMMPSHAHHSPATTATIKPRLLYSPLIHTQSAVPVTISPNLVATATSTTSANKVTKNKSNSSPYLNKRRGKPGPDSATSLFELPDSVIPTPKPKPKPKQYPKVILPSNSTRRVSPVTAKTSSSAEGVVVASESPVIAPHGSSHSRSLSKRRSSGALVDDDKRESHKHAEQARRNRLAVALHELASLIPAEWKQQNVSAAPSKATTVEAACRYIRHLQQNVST

Sequence	relative binding free energy [kcal/mol]
ACGGGCACGTGGTTGA	-0.13
GGAGTCACGTGGCGCT	0.03
TAAGGCACGTGAGGGC	0.15
TTAGGCACGTGATATG	-0.04
GTGTACACGTGGTATC	0.02
TATTGCACGTGAACTG	0.18
CATCGCACGTGGTTGG	0.01
GTTGACACGTGGCGTA	-0.15
TTTGACACGTGTTGTA	-0.05
GGGTGCACGTGTCTAT	-0.03
GAGGTCACGTGTGTAT	0.23
CAGTACACGTGTGGGA	0.14
ATTGGCACGTGGAGCT	-0.19
ATAGGCACGTGTAGTA	0.01
ATGGGCACGTGTATTC	-0.01
AGCGTCACGTGTCTGG	0.03
TTTTTCACGTGTCAAA	0.3
AGGGGCACGTGCTTAA	-0.12
GCGATCACGTGTGGTA	0.24
AGATGCACGTGCAGTG	-0.13
AGCGGCACGTGGCTGG	-0.19
TATTTCACGTGCAGAG	0.22
TAAAGCACGTGAGTGG	0.07

Sequence	relative binding free energy [kcal/mol]
AAAAACACGTGGAGGT	0.09
TTTCGCACGTGTGGAT	0.01
TGTTCCACGTGTGATA	0.01
TGGGGCACGTGATGTA	0.05
GCTTGCACGTGGGCTT	-0.13
TTGTACACGTGGATGA	0.08
TATAACACGTGTTTAG	-0.07
TAGCACACGTGGGGCG	-0.08
GGAGGCACGTGCGTGC	-0.06
TGTTTCACGTGGCGTA	0.28
TGGGTCACGTGCTAAG	0.05
GCTGGCACGTGTGGTG	-0.05
ACTGTCACGTGGTGGA	-0.02
CAGTTCACGTGCGGTT	0.14
GGTGCCACGTGAGGGG	0.18
TGAGACACGTGGCAGG	-0.06
TTATTCACGTGAGGTC	0.34
GGGGTCACGTGGACAA	0.19
AATTGCACGTGAAGAG	0.21
TGTGGCACGTGAGAAT	0.2
CGAGACACGTGTGGAT	0.16
ATTTACACGTGGGTTT	0.01
AGTTTCACGTGTAATA	0.26

Sequence	relative binding free energy [kcal/mol]
TTCGACACGTGGTTGA	0.03
CAGGTCACGTGGGATT	0.12
TTATGCACGTGAATTA	0.16
GTATGCACGTGGGTAG	-0.12
GTCTTCACGTGGTTTG	0.41
TGAGACACGTGGCTGG	-0.16
GTGTTCACGTGGGGTC	0.16
TTTTTCACGTGAGTCG	0.39
TGTTACACGTGTTACG	0.04
TTGGGCACGTGTACTG	-0.06
TAGTCCACGTGGGGGT	-0.06
AAAGGCACGTGTGGAT	-0.03
CACGTCACGTGTTGGG	0.04
TATTGCACGTGGGGAT	-0.16
TGGGACACGTGTAATG	0.05
GTAGTCACGTGTGTTT	0.22
AGCTTCACGTGAGTGA	0.33
CGGGCCACGTGGGACG	-0.16
TGAAACACGTGGGGGT	-0.13
AGTAGCACGTGTGTTT	0.07
TTATTCACGTGGTTAG	0.11
CGGTTCACGTGATCGT	0.31
CGATGCACGTGTTTAT	-0.05

Sequence	relative binding free energy [kcal/mol]
GGTTGCACGTGGGAAA	0.06
ATCTACACGTGGTGAG	0.1
ATGATCACGTGAGGCT	0.42
AATTACACGTGGTATT	0.1
TCATTCACGTGTGGAT	0.27
GGTTGCACGTGGAAAA	0.22
GAGTCCACGTGTAGGG	0.14
TGTTGCACGTGGAATT	0.09
ATCGTCACGTGATGGA	0.16
CTGTGCACGTGTAGTG	-0.11
ATCAGCACGTGTCGGG	0
AGGGACACGTGGATGC	0.21
TTTTTCACGTGTCTAT	0.26
GCGCACACGTGGGGGG	-0.05
CAGAGCACGTGGTTGT	-0.16
GTTAGCACGTGATTGC	0.16
TTTTGCACGTGGGTAA	-0.12
TGGAGCACGTGGGAGA	-0.14
GGATCCACGTGATGTG	0.17
TGCGGCACGTGGAGTG	-0.04
TGTGGCACGTGGTACG	-0.16
TTGATCACGTGTGTCG	0.01
TTATGCACGTGTTGCC	0.02

Sequence	relative binding free energy [kcal/mol]
AGCTTCACGTGATAGT	0.32
GGGGTCACGTGGGGCT	0.08
CAATTCACGTGTTGTA	0.39
GTTTGCACGTGGTCAT	-0.02
GGCAGCACGTGGATGA	0.08
AGCGTCACGTGCGGGT	0.03
TTCCTCACGTGGTTTG	0.22
ATGTGCACGTGCGGGG	-0.04
GGGTCCACGTGTTTTT	-0.07
TTGAACACGTGGTAGA	0.02
GTGGGCACGTGGCGTG	-0.14
GGGCTCACGTGCGGGA	0.23
TAATGCACGTGGGCTA	-0.13
ATTCGCACGTGATTTG	-0.01
CTTTGCACGTGTGTAA	-0.08
TTGGACACGTGAGACG	0.21
TGGATCACGTGTAGTG	0.15
AGGTCCACGTGCGTGT	-0.08
TCTGGCACGTGGGAAG	-0.22
GTGGTCACGTGAAGAG	0.36
AGTGTCACGTGGGGAT	0
TTAAGCACGTGATGTA	-0.06
CTTGGCACGTGGGATG	-0.13
